These results are taken from PMC9911399, “Two distinct binding modes provide the RNA-binding protein RbFox with extraordinary sequence specificity”.

First the molecules themselves.
T1: RBFOX1 RRM RbFoxmut (Fox-RRM*) (Homo sapiens, UniProt Q9NWB1 109-208, R118D;E147R;N151S;E152T)
T1 sequence: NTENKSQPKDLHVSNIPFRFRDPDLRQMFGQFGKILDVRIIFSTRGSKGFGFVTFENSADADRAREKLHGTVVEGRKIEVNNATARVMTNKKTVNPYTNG

B1: GCUUGAU (DNA:RNA)
RNA: GGGAGACCGGAAUUCAGAUUGUCCGCUUGAUUUAAAUCCCGUCGUAGCCACCA
DNA 1: CAATCTGAATTCCGGTCTCCC
DNA 2: TGGTGGCTACGACGGGATT
B2: GAGACGC (DNA:RNA)
RNA: B1 RNA with C26A, U27G, U28A, G29C, A30G, U31C
DNA 1: CAATCTGAATTCCGGTCTCCC
DNA 2: TGGTGGCTACGACGGGATT
B3: ACUCUAG (DNA:RNA)
RNA: B1 RNA with G25A, U28C, G29U, U31G
DNA 1: CAATCTGAATTCCGGTCTCCC
DNA 2: TGGTGGCTACGACGGGATT
B4: AGAUAAG (DNA:RNA)
RNA: B1 RNA with G25A, C26G, U27A, G29A, U31G
DNA 1: CAATCTGAATTCCGGTCTCCC
DNA 2: TGGTGGCTACGACGGGATT
B5: UCAAUGU (DNA:RNA)
RNA: B1 RNA with G25U, U27A, U28A, G29U, A30G
DNA 1: CAATCTGAATTCCGGTCTCCC
DNA 2: TGGTGGCTACGACGGGATT
B6: AACCUGG (DNA:RNA)
RNA: GGGAGACCGGAAUUCAGAUUGUCCAACCUGGUUAAAUCCCGUCGUAGCCACCA
DNA 1: CAATCTGAATTCCGGTCTCCC
DNA 2: TGGTGGCTACGACGGGATT
B7: UACGCGU (DNA:RNA)
RNA: B6 RNA with A25U, C28G, U29C, G31U
DNA 1: CAATCTGAATTCCGGTCTCCC
DNA 2: TGGTGGCTACGACGGGATT
B8: CGAACCG (DNA:RNA)
RNA: B6 RNA with A25C, A26G, C27A, C28A, U29C, G30C
DNA 1: CAATCTGAATTCCGGTCTCCC
DNA 2: TGGTGGCTACGACGGGATT
B9: ACCCCAA (DNA:RNA)
RNA: B6 RNA with A26C, U29C, G30A, G31A
DNA 1: CAATCTGAATTCCGGTCTCCC
DNA 2: TGGTGGCTACGACGGGATT
B10: UUGCACU (DNA:RNA)
RNA: B6 RNA with A25U, A26U, C27G, U29A, G30C, G31U
DNA 1: CAATCTGAATTCCGGTCTCCC
DNA 2: TGGTGGCTACGACGGGATT
B11: GUAGCCC (DNA:RNA)
RNA: B1 RNA with C26U, U27A, U28G, G29C, A30C, U31C
DNA 1: CAATCTGAATTCCGGTCTCCC
DNA 2: TGGTGGCTACGACGGGATT
B12: CUGCUUG (DNA:RNA)
RNA: B6 RNA with A25C, A26U, C27G, G30U
DNA 1: CAATCTGAATTCCGGTCTCCC
DNA 2: TGGTGGCTACGACGGGATT
B13: UACGUGG (DNA:RNA)
RNA: B6 RNA with A25U, C28G
DNA 1: CAATCTGAATTCCGGTCTCCC
DNA 2: TGGTGGCTACGACGGGATT
B14: ACAUACA (DNA:RNA)
RNA: B1 RNA with G25A, U27A, G29A, A30C, U31A
DNA 1: CAATCTGAATTCCGGTCTCCC
DNA 2: TGGTGGCTACGACGGGATT
B15: UGAGGGU (DNA:RNA)
RNA: B1 RNA with G25U, C26G, U27A, U28G, A30G
DNA 1: CAATCTGAATTCCGGTCTCCC
DNA 2: TGGTGGCTACGACGGGATT
B16: AAGGUGU (DNA:RNA)
RNA: B6 RNA with C27G, C28G, G31U
DNA 1: CAATCTGAATTCCGGTCTCCC
DNA 2: TGGTGGCTACGACGGGATT
B17: GGCCCAU (DNA:RNA)
RNA: B1 RNA with C26G, U27C, U28C, G29C
DNA 1: CAATCTGAATTCCGGTCTCCC
DNA 2: TGGTGGCTACGACGGGATT
B18: AGAGCGA (DNA:RNA)
RNA: B6 RNA with A26G, C27A, C28G, U29C, G31A
DNA 1: CAATCTGAATTCCGGTCTCCC
DNA 2: TGGTGGCTACGACGGGATT
B19: GCUCUUG (DNA:RNA)
RNA: B6 RNA with A25G, A26C, C27U, G30U
DNA 1: CAATCTGAATTCCGGTCTCCC
DNA 2: TGGTGGCTACGACGGGATT
B20: CUUGCUC (DNA:RNA)
RNA: B1 RNA with G25C, C26U, U28G, G29C, A30U, U31C
DNA 1: CAATCTGAATTCCGGTCTCCC
DNA 2: TGGTGGCTACGACGGGATT
B21: AUUAACA (DNA:RNA)
RNA: B6 RNA with A26U, C27U, C28A, U29A, G30C, G31A
DNA 1: CAATCTGAATTCCGGTCTCCC
DNA 2: TGGTGGCTACGACGGGATT
B22: UGUCCAC (DNA:RNA)
RNA: B1 RNA with G25U, C26G, U28C, G29C, U31C
DNA 1: CAATCTGAATTCCGGTCTCCC
DNA 2: TGGTGGCTACGACGGGATT
B23: CUCCACA (DNA:RNA)
RNA: B6 RNA with A25C, A26U, U29A, G30C, G31A
DNA 1: CAATCTGAATTCCGGTCTCCC
DNA 2: TGGTGGCTACGACGGGATT
B24: UUUCGAU (DNA:RNA)
RNA: B1 RNA with G25U, C26U, U28C
DNA 1: CAATCTGAATTCCGGTCTCCC
DNA 2: TGGTGGCTACGACGGGATT
B25: AUGCCGG (DNA:RNA)
RNA: B6 RNA with A26U, C27G, U29C
DNA 1: CAATCTGAATTCCGGTCTCCC
DNA 2: TGGTGGCTACGACGGGATT
B26: AUAAAGC (DNA:RNA)
RNA: B6 RNA with A26U, C27A, C28A, U29A, G31C
DNA 1: CAATCTGAATTCCGGTCTCCC
DNA 2: TGGTGGCTACGACGGGATT
B27: AACUGUC (DNA:RNA)
RNA: B6 RNA with C28U, U29G, G30U, G31C
DNA 1: CAATCTGAATTCCGGTCTCCC
DNA 2: TGGTGGCTACGACGGGATT
B28: GUGUUGC (DNA:RNA)
RNA: B6 RNA with A25G, A26U, C27G, C28U, G31C
DNA 1: CAATCTGAATTCCGGTCTCCC
DNA 2: TGGTGGCTACGACGGGATT
B29: UAUUCGA (DNA:RNA)
RNA: B6 RNA with A25U, C27U, C28U, U29C, G31A
DNA 1: CAATCTGAATTCCGGTCTCCC
DNA 2: TGGTGGCTACGACGGGATT
B30: CAAACUG (DNA:RNA)
RNA: B6 RNA with A25C, C27A, C28A, U29C, G30U
DNA 1: CAATCTGAATTCCGGTCTCCC
DNA 2: TGGTGGCTACGACGGGATT
B31: CGCGUAA (DNA:RNA)
RNA: B6 RNA with A25C, A26G, C28G, G30A, G31A
DNA 1: CAATCTGAATTCCGGTCTCCC
DNA 2: TGGTGGCTACGACGGGATT

Substitutions are numbered along the chain they refer to; changes in the protein carry UniProt numbers. Some of the results follow.

The assay addresses T1, RBFOX1 RRM RbFoxmut (Fox-RRM*). As to the kind of experiment: EMSA; HiTS-Eq, 1 nM pool, 10 min; buffer printed only for the single-RNA assays: 10 mM Tris pH 7.5, 150 mM NaCl, 3.4 mM EDTA, 0.001% NP-40, 30 C. As to conditions: tags: His6 N-terminal (pET28a); label: 5' 32P. The essentials: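 A pool of RNA with 7 randomized nucleotides, 5′-radiolabelled and with DNA-annealed flanks, was equilibrated at 1 nM for 10 min in 50 µL with purified RbFox RRM, wild type or mutant, across increasing protein concentrations. Free RNA was separated by 8% native PAGE, excised, reverse-transcribed, barcoded by PCR and sequenced. Relative association constants were obtained from read-count changes of each RNA species versus the control reaction and normalised to the cognate motif.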
As to B1, the binding signal was 0.174 KA relative to UGCAUGU. In the case of B2, the binding signal is 0.0555 KA relative to UGCAUGU. Next, B3: 0.0977 KA relative to UGCAUGU. For B4 the value was 0.153 KA relative to UGCAUGU; for B5, 0.103 KA relative to UGCAUGU; for B6, 0.0806 KA relative to UGCAUGU.

Regarding B7, the binding signal is 0.111 KA relative to UGCAUGU. Turning to B8, the binding signal was 0.101 KA relative to UGCAUGU.

B9: the binding signal was 0.0756 KA relative to UGCAUGU. For B10 the value was 0.084 KA relative to UGCAUGU; for B11, 0.0539 KA relative to UGCAUGU; for B12, 0.423 KA relative to UGCAUGU. For B13 the value was 0.0673 KA relative to UGCAUGU; for B14, 0.111 KA relative to UGCAUGU. For B15 the value was 0.0738 KA relative to UGCAUGU; for B16, 0.142 KA relative to UGCAUGU. In the case of B17, the binding signal was 0.0646 KA relative to UGCAUGU. Next, B18: 0.0748 KA relative to UGCAUGU; B19: 0.087 KA relative to UGCAUGU; B20: 0.0577 KA relative to UGCAUGU. For B21 the value was 0.13 KA relative to UGCAUGU. In the case of B22, the binding signal is 0.0873 KA relative to UGCAUGU. On to B23, for which the binding signal was 0.0889 KA relative to UGCAUGU. Next, B24: 0.0615 KA relative to UGCAUGU; B25: 0.0959 KA relative to UGCAUGU; B26: 0.0949 KA relative to UGCAUGU. Turning to B27, the binding signal is 0.113 KA relative to UGCAUGU.

With B28, the binding signal was 0.16 KA relative to UGCAUGU.

Turning to B29, the binding signal is 0.0788 KA relative to UGCAUGU.

Regarding B30, the binding signal was 0.059 KA relative to UGCAUGU. With B31, the binding signal was 0.114 KA relative to UGCAUGU.
